# Laboratory results as given in ChEMBL document CHEMBL1201862, “PubChem BioAssay data set” (2004).
# Tested on: NCI-H322M
# Assay: growth of human tumour cells (NCI), 48 h
row,SMILES,GI50
1,Cc1ccc(S(=O)(=O)c2c3nc4ccccc4nc3n3c2[nH]c2ccccc23)cc1,inactive: 70 µM
2,COc1ccc(OCc2nc3cc(C(F)(F)F)ccc3nc2-c2ccccc2)cc1,inactive: > 100 µM
3,Cc1cc2occ(C)c(=O)c2c2c1OC(C)(C)S2,inactive: > 100 µM
4,Cc1nc(N)c(N2CCN(S(=O)(=O)N(Cc3ccccc3)Cc3ccccc3)CC2)c(O)n1,inactive: 25.4 µM
5,CN(C)CCNc1ncnc2nc(-c3ccccc3)c(-c3ccccc3)nc12,inactive: > 100 µM
6,CN1CCCN(C)CCCN(C)CCCN(C)CCC1,inactive: > 100 µM
7,CC(C)(Cc1ccccc1)NC1=NCCO1,inactive: > 100 µM
8,CCOC(=O)c1c(-c2ccc(OC)cc2)c(C#N)c(=S)n(C2OC(CO)C(O)C(O)C2O)c1-c1ccccc1 (configuration not stated),inactive: > 100 µM
9,O=C1CC2OCC=C3CN4CCC5(C(=O)O)C(N1)C2C3CC45 (configuration not stated),inactive: > 100 µM
10,COc1cc2c(cc1O)C1Cc3ccc(OC)c(O)c3C[N+]1(C)CC2 (configuration not stated),inactive: > 100 µM
11,N#C/N=C(/N)NCc1ccccc1,inactive: > 100 µM
12,C=C(CN(C)C)C(=O)c1ccccc1OC,inactive: > 71.1 µM
13,c1ccc2c(c1)sc1c3cnccc3ccc21,inactive: > 100 µM
14,NCCCN(CCCCN(CCCN)Cc1ccccc1)Cc1ccccc1,inactive: 32.4 µM
15,COc1ccc(/N=N/c2c(C)c(C#N)c(=S)n(C3OC(CO)C(O)C(O)C3O)c2C)cc1 (configuration not stated),inactive: > 100 µM
16,O=C1N/C(=N/N=C/C(O)C(O)C(O)CO)N/C1=C\c1c[nH]c2ccccc12 (configuration not stated),inactive: > 100 µM
17,O=C(O)CCCc1ccc2c(c1)C(C(=O)O)CC2 (configuration not stated),inactive: > 100 µM
18,COc1ccc(/C=C\c2cc(OC)c(OC)c(OC)c2)cc1OC(=O)NCCN(C)C,active: 0.000412 µM
19,COc1cc(-c2cc(CCC(=O)Nc3ccccc3[N+](=O)[O-])n(-c3ccc([N+](=O)[O-])cc3[N+](=O)[O-])n2)ccc1O,inactive: > 10 µM
20,NS(=O)(=O)c1ccc(NC(=S)N/C=C2\C(=O)Oc3ccccc3C2=O)cc1,inactive: 39.4 µM
21,COc1c(OC(C)C)c(OC(C)C)c2oc(=O)n3c2c1C(c1ccccc1-n1c(C)ccc1C)C=C3 (configuration not stated),inactive: 23.9 µM

row,SMILES,GI50
1,CN(C)c1ccc(C(C=C2c3ccccc3Sc3ccccc32)=C(C#N)C#N)cc1,inactive: 82.4 µM
2,N#Cc1c(N)c2c(c(-c3ccccc3)c1-c1ccccc1)C(=O)N(Nc1ccccc1)C2=O,inactive: 3.79 µM
3,Cc1cnc(-n2c(C)nc3cc(Cl)ccc3c2=O)s1,inactive: 28.1 µM
4,CN(C)CCO/N=C1/C=C2CC[C@H]3[C@@H]4CC[C@H](O)[C@@]4(C)CC[C@@H]3[C@@]2(C)CC1,inactive: 11.5 µM
5,O=c1[nH]c2ccc(O)cc2o1,inactive: > 100 µM
6,O=C1C(=CNc2ccccc2Cl)C(=O)N(c2ccccc2)C(=O)N1c1ccccc1,inactive: > 100 µM
7,COc1ccc(OC)c([N+](=O)[O-])c1-c1nc2sc(C)c(C)n2c1/C=N/N=C(N)N,inactive: 64.1 µM
8,CN(C(=O)C12C3C4C1C1C2C3C41C(N)=O)C(C)(C)C (configuration not stated),inactive: > 100 µM
9,Cc1ccc(S(=O)(=O)N2CCCCN(S(=O)(=O)c3ccc(C)cc3)Cc3ccccc3OCCOCCOc3c4cccc3Cc3cccc5c3OCCOCCOc3ccccc3CN(S(=O)(=O)c3ccc(C)cc3)CCCN(S(=O)(=O)c3ccc(C)cc3)Cc3ccccc3OCCOCCOc3c(cccc3C4)Cc3cccc(c3OCCOCCOc3ccccc3C2)C5)cc1,inactive: > 100 µM
10,CSc1c(C#N)c(O)nc(N)c1C(=O)Nc1ccc(C)cc1,inactive: > 100 µM
11,CCN(CC)CCOC(c1ccccc1)c1ccccc1.CCOC(=O)Nc1ccc(S(=O)(=O)OC)cc1.CCOC(=O)Nc1ccc(S(=O)(=O)OC)cc1.Nc1ccc(C(=O)O)c(O)c1,inactive: > 100 µM
12,O=C(O)Cn1ccc(=O)c2ccc([N+](=O)[O-])cc21,inactive: > 100 µM
13,COc1ccc2c(c1)CC1C3(CCCCC23)CC[N+]1(C)C (configuration not stated),inactive: > 100 µM
14,CC(C)CCCC(C)[C@H]1CCC2[C@@H]3CCC4Nc5c(cnn5-c5ccccc5)C[C@]4(C)C3CC[C@@]21C (some centres not stated),inactive: > 100 µM
15,CCOC(=O)Oc1c(OC)cc(C(=O)NC2CCc3cc(OC)c(OC)c(OC)c3-c3ccc(SC)c(=O)cc32)cc1OC (configuration not stated),active: 0.53 µM
16,CC(=O)OC12c3ccccc3-c3ccccc3C1C1C(=O)N(C)C(=O)C12Cl (configuration not stated),inactive: > 10 µM
17,O=C(O)c1ccccc1C(=O)Nn1cnnc1,inactive: > 100 µM
18,CC1CCCN(CP(=O)(c2ccccc2)c2ccccc2)C1 (configuration not stated),inactive: > 100 µM
19,CNc1nc2c(C)ccc3nc(N(C)C)nc-3c2n1C,inactive: > 10 µM
20,Cc1ccc2c(O)cc(-c3cccc4ccccc34)nc2n1,active: 0.0334 µM
21,CCC(CCCN)Nc1cc(OC)cc2c(C)ccnc12 (configuration not stated),inactive: 14.6 µM

#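 96-well plates; 48 h exposure; 5 concentrations. Endpoints by linear interpolation between flanking doses. Not reached: highest tested concentration assigned. GI50: concentration for 50% inhibition of growth.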 The source made the active and inactive calls. No stated cut-off is given here; in the data, active = GI50 up to about 1.1 µM and inactive = higher.
